Drawing on publication PMC9911399, “Two distinct binding modes provide the RNA-binding protein RbFox with extraordinary sequence specificity”, this text covers binding signal for 31 molecules.

Changes are numbered by the printed parent chain; changes in the protein carry UniProt numbers. This is one part of the list.

T1: RBFOX1 RRM RbFoxmut (Fox-RRM*) (Homo sapiens, UniProt Q9NWB1 109-208, R118D;E147R;N151S;E152T)
T1 sequence: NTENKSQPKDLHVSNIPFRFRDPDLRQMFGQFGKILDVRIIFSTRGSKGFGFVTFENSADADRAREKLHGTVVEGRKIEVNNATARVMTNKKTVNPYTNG

B1: UAGCACU (DNA:RNA)
RNA: GGGAGACCGGAAUUCAGAUUGUCCUAGCACUUUAAAUCCCGUCGUAGCCACCA
DNA 1: CAATCTGAATTCCGGTCTCCC
DNA 2: TGGTGGCTACGACGGGATT
B2: CCUCUCC (DNA:RNA)
RNA: B1 RNA with U25C, A26C, G27U, A29U, U31C
DNA 1: CAATCTGAATTCCGGTCTCCC
DNA 2: TGGTGGCTACGACGGGATT
B3: UAUCGGG (DNA:RNA)
RNA: B1 RNA with G27U, A29G, C30G, U31G
DNA 1: CAATCTGAATTCCGGTCTCCC
DNA 2: TGGTGGCTACGACGGGATT
B4: CGGCACC (DNA:RNA)
RNA: B1 RNA with U25C, A26G, U31C
DNA 1: CAATCTGAATTCCGGTCTCCC
DNA 2: TGGTGGCTACGACGGGATT
B5: CACACAU (DNA:RNA)
RNA: B1 RNA with U25C, G27C, C28A, A29C, C30A
DNA 1: CAATCTGAATTCCGGTCTCCC
DNA 2: TGGTGGCTACGACGGGATT
B6: CUCCUUG (DNA:RNA)
RNA: B1 RNA with U25C, A26U, G27C, A29U, C30U, U31G
DNA 1: CAATCTGAATTCCGGTCTCCC
DNA 2: TGGTGGCTACGACGGGATT
B7: CGACUAC (DNA:RNA)
RNA: B1 RNA with U25C, A26G, G27A, A29U, C30A, U31C
DNA 1: CAATCTGAATTCCGGTCTCCC
DNA 2: TGGTGGCTACGACGGGATT
B8: AAGCCCC (DNA:RNA)
RNA: B1 RNA with U25A, A29C, U31C
DNA 1: CAATCTGAATTCCGGTCTCCC
DNA 2: TGGTGGCTACGACGGGATT
B9: AGGCACG (DNA:RNA)
RNA: B1 RNA with U25A, A26G, U31G
DNA 1: CAATCTGAATTCCGGTCTCCC
DNA 2: TGGTGGCTACGACGGGATT
B10: CCUGGUC (DNA:RNA)
RNA: GGGAGACCGGAAUUCAGAUUGUCCCCUGGUCUUAAAUCCCGUCGUAGCCACCA
DNA 1: CAATCTGAATTCCGGTCTCCC
DNA 2: TGGTGGCTACGACGGGATT
B11: GGAAAGC (DNA:RNA)
RNA: B10 RNA with C25G, C26G, U27A, G28A, G29A, U30G
DNA 1: CAATCTGAATTCCGGTCTCCC
DNA 2: TGGTGGCTACGACGGGATT
B12: UUUAGGC (DNA:RNA)
RNA: B10 RNA with C25U, C26U, G28A, U30G
DNA 1: CAATCTGAATTCCGGTCTCCC
DNA 2: TGGTGGCTACGACGGGATT
B13: GGUCUUG (DNA:RNA)
RNA: B10 RNA with C25G, C26G, G28C, G29U, C31G
DNA 1: CAATCTGAATTCCGGTCTCCC
DNA 2: TGGTGGCTACGACGGGATT
B14: GAUCCCG (DNA:RNA)
RNA: B1 RNA with U25G, G27U, A29C, U31G
DNA 1: CAATCTGAATTCCGGTCTCCC
DNA 2: TGGTGGCTACGACGGGATT
B15: UUGCUUG (DNA:RNA)
RNA: B1 RNA with A26U, A29U, C30U, U31G
DNA 1: CAATCTGAATTCCGGTCTCCC
DNA 2: TGGTGGCTACGACGGGATT
B16: GGAAAGA (DNA:RNA)
RNA: B1 RNA with U25G, A26G, G27A, C28A, C30G, U31A
DNA 1: CAATCTGAATTCCGGTCTCCC
DNA 2: TGGTGGCTACGACGGGATT
B17: UCAACGA (DNA:RNA)
RNA: B10 RNA with C25U, U27A, G28A, G29C, U30G, C31A
DNA 1: CAATCTGAATTCCGGTCTCCC
DNA 2: TGGTGGCTACGACGGGATT
B18: CGGAAUU (DNA:RNA)
RNA: B1 RNA with U25C, A26G, C28A, C30U
DNA 1: CAATCTGAATTCCGGTCTCCC
DNA 2: TGGTGGCTACGACGGGATT
B19: UGUAACG (DNA:RNA)
RNA: B1 RNA with A26G, G27U, C28A, U31G
DNA 1: CAATCTGAATTCCGGTCTCCC
DNA 2: TGGTGGCTACGACGGGATT
B20: UGCACGG (DNA:RNA)
RNA: B1 RNA with A26G, G27C, C28A, A29C, C30G, U31G
DNA 1: CAATCTGAATTCCGGTCTCCC
DNA 2: TGGTGGCTACGACGGGATT
B21: GAGGAUC (DNA:RNA)
RNA: B10 RNA with C25G, C26A, U27G, G29A
DNA 1: CAATCTGAATTCCGGTCTCCC
DNA 2: TGGTGGCTACGACGGGATT
B22: CAAACGA (DNA:RNA)
RNA: B10 RNA with C26A, U27A, G28A, G29C, U30G, C31A
DNA 1: CAATCTGAATTCCGGTCTCCC
DNA 2: TGGTGGCTACGACGGGATT
B23: GCACAGU (DNA:RNA)
RNA: B1 RNA with U25G, A26C, G27A, C30G
DNA 1: CAATCTGAATTCCGGTCTCCC
DNA 2: TGGTGGCTACGACGGGATT
B24: UCCAGUA (DNA:RNA)
RNA: B10 RNA with C25U, U27C, G28A, C31A
DNA 1: CAATCTGAATTCCGGTCTCCC
DNA 2: TGGTGGCTACGACGGGATT
B25: CCCAAGU (DNA:RNA)
RNA: B10 RNA with U27C, G28A, G29A, U30G, C31U
DNA 1: CAATCTGAATTCCGGTCTCCC
DNA 2: TGGTGGCTACGACGGGATT
B26: GGGCGAU (DNA:RNA)
RNA: B1 RNA with U25G, A26G, A29G, C30A
DNA 1: CAATCTGAATTCCGGTCTCCC
DNA 2: TGGTGGCTACGACGGGATT
B27: CACGGUA (DNA:RNA)
RNA: B10 RNA with C26A, U27C, C31A
DNA 1: CAATCTGAATTCCGGTCTCCC
DNA 2: TGGTGGCTACGACGGGATT
B28: AUUCAAA (DNA:RNA)
RNA: B1 RNA with U25A, A26U, G27U, C30A, U31A
DNA 1: CAATCTGAATTCCGGTCTCCC
DNA 2: TGGTGGCTACGACGGGATT
B29: AACUAAA (DNA:RNA)
RNA: B1 RNA with U25A, G27C, C28U, C30A, U31A
DNA 1: CAATCTGAATTCCGGTCTCCC
DNA 2: TGGTGGCTACGACGGGATT
B30: UCUAGGU (DNA:RNA)
RNA: B10 RNA with C25U, G28A, U30G, C31U
DNA 1: CAATCTGAATTCCGGTCTCCC
DNA 2: TGGTGGCTACGACGGGATT
B31: ACUUCGG (DNA:RNA)
RNA: B10 RNA with C25A, G28U, G29C, U30G, C31G
DNA 1: CAATCTGAATTCCGGTCTCCC
DNA 2: TGGTGGCTACGACGGGATT

This assay deals with T1, RBFOX1 RRM RbFoxmut (Fox-RRM*). Put plainly: EMSA; HiTS-Eq, 1 nM pool, 10 min; buffer printed only for the single-RNA assays: 10 mM Tris pH 7.5, 150 mM NaCl, 3.4 mM EDTA, 0.001% NP-40, 30 C. Conditions: tags: His6 N-terminal (pET28a); label: 5' 32P. The method, boiled down:
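Purified wild-type or mutant RbFox RRM at increasing concentrations was equilibrated with 1 nM of 5′-radiolabelled RNA carrying 7 randomized nucleotides for 10 min in 50 µL. Unbound RNA was separated by 8% native PAGE and sequenced. Relative association constants came from read-count changes of each RNA species compared with the control reaction, normalised to the cognate motif.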
For the molecule B1, the binding signal was 0.0669 KA relative to UGCAUGU.

As for B2, the binding signal is 0.0483 KA relative to UGCAUGU.

In the case of B3, the binding signal is 0.105 KA relative to UGCAUGU.

On to B4, for which the binding signal was 0.0869 KA relative to UGCAUGU.

As to B5, the binding signal was 0.0922 KA relative to UGCAUGU.

As for B6, the binding signal was 0.118 KA relative to UGCAUGU.

Regarding B7, the binding signal was 0.111 KA relative to UGCAUGU.

Consider B8, for which the binding signal is 0.0791 KA relative to UGCAUGU.

Turning to B9, the binding signal was 0.237 KA relative to UGCAUGU.

For B10, the binding signal is 0.166 KA relative to UGCAUGU.

For the molecule B11, the binding signal was 0.0562 KA relative to UGCAUGU.

For the molecule B12, the binding signal is 0.0793 KA relative to UGCAUGU.

For the molecule B13, the binding signal was 0.368 KA relative to UGCAUGU.

Consider B14, for which the binding signal is 0.0748 KA relative to UGCAUGU.

Turning to B15, the binding signal is 0.503 KA relative to UGCAUGU.

For the molecule B16, the binding signal was 0.0538 KA relative to UGCAUGU.

In the case of B17, the binding signal is 0.0449 KA relative to UGCAUGU.

As for B18, the binding signal was 0.0639 KA relative to UGCAUGU.

On to B19, for which the binding signal is 0.157 KA relative to UGCAUGU.

Take B20: the binding signal is 0.308 KA relative to UGCAUGU.

For the molecule B21, the binding signal was 0.0977 KA relative to UGCAUGU.

For B22, the binding signal is 0.0408 KA relative to UGCAUGU.

Turning to B23, the binding signal is 0.0768 KA relative to UGCAUGU.

Regarding B24, the binding signal was 0.135 KA relative to UGCAUGU.

Turning to B25, the binding signal was 0.091 KA relative to UGCAUGU.

Consider B26, for which the binding signal is 0.0887 KA relative to UGCAUGU.

Consider B27, for which the binding signal is 0.184 KA relative to UGCAUGU.

For the molecule B28, the binding signal was 0.0787 KA relative to UGCAUGU.

Regarding B29, the binding signal is 0.147 KA relative to UGCAUGU.

On to B30, for which the binding signal is 0.0903 KA relative to UGCAUGU.

Regarding B31, the binding signal is 0.0698 KA relative to UGCAUGU.
